Experimental data as given in patent publication US6583155B2, “Method for treating allergies using substituted pyrazoles” (priority 2000, dated 2003).

Biological target: Recombinant human cathepsin S (CatS) (Homo sapiens, UniProt P25774)
Assay: biochemical

Structure (SMILES) | IC50
Cn1c(=O)n(C2CCN(C[C@H](O)Cn3nc(-c4ccc(C(F)(F)F)cc4)c4c3CCN(S(C)(=O)=O)C4)CC2)c2cc(Cl)ccc21 (stereo in doubt) [Example 39, 5-Chloro-3-(1-{2-hydroxy-3-[5-methanesulfonyl-3-(4-trifluoromethyl-phenyl)-4,5,6,7-tetrahydro-pyrazolo[4,3-c]pyridin-1-yl]-propyl}-piperidin-4-yl)-1-methyl-1,3-dihydro-benzoimidazol-2-one] | 40 nM
CC(=O)N1CCc2c(c(-c3ccc(Cl)cc3)nn2CC(O)CN2CCC(Nc3ccccc3C#N)CC2)C1 (centres unmarked) [Example 1, 2-(1-{3-[5-Acetyl-3-(4-chloro-phenyl)-4,5,6,7-tetrahydro-pyrazolo[4,3-c]pyridin-1-yl]-2-hydroxy-propyl}-piperidin-4-ylamino)-benzonitrile] | 730 nM
CC(=O)N1CCc2c(c(-c3ccc(C(F)(F)F)cc3)nn2CC(O)CN2CCC(n3c(=O)[nH]c4ccccc43)CC2)C1 (centres unmarked) [Example 2, 1-(1-{3-[5-Acetyl-3-(4-trifluoromethyl-phenyl)-4,5,6,7-tetrahydro-pyrazolo[4,3-c]pyridin-1-yl]-2-hydroxy-propyl}-piperidin-4-yl)-1,3-dihydro-benzoimidazol-2-one] | 70 nM
CC(=O)N1CCc2c(c(-c3ccc(Br)cc3)nn2CC(O)CN2CCC(n3c(=O)oc4ccccc43)CC2)C1 (centres unmarked) [Example 3, 3-(1-{3-[5-Acetyl-3-(4-bromo-phenyl)-4,5,6,7-tetrahydro-pyrazolo[4,3-c]pyridin-1-yl]-2-hydroxy-propyl}-piperidin-4-yl)-3H-benzooxazol-2-one] | 280 nM
CC(=O)N1CCc2c(c(-c3ccc(Cl)c(C)c3)nn2CC(O)CN2CCC(Oc3ccc(Cl)c(Cl)c3)CC2)C1 (centres unmarked) [Example 4] | 190 nM
CC(=O)N1CCc2c(c(-c3ccc(Cl)c(C)c3)nn2CC(O)CN2CCC(N3CCc4ccccc43)CC2)C1 (centres unmarked) [Example 5, 1-(3-(4-Chloro-3-methyl-phenyl)-1-{3-[4-(2,3-dihydro-indol-1-yl)-piperidin-1-yl]-2-hydroxy-propyl}-1,4,6,7-tetrahydro-pyrazolo[4,3-c]pyridin-5-yl)-ethanone] | 1160 nM
CC(=O)N1CCc2c(c(-c3ccc(Cl)c(C)c3)nn2C[C@@H](O)CN2CCC(n3c(=O)[nH]c4ccc(Cl)cc43)CC2)C1 [Example 6, (S)-1-(1-{3-[5-Acetyl-3-(4-chloro-3-methyl-phenyl)-4,5,6,7-tetrahydro-pyrazolo[4,3-c]pyridin-1-yl]-2-hydroxy-propyl}-piperidin-4-yl)-6-chloro-1,3-dihydro-benzoimidazol-2-one] | 190 nM
CC(=O)N1CCc2c(c(-c3ccc(C(F)(F)F)cc3)nn2CC(O)CN2CCC(n3c(=O)n(CCN4CCOCC4)c4ccccc43)CC2)C1 (centres unmarked) [Example 7, 1-(1-{3-[5-Acetyl-3-(4-trifluoromethyl-phenyl)-4,5,6,7-tetrahydro-pyrazolo[4,3-c]pyridin-1-yl]-2-hydroxy-propyl}-piperidin-4-yl)-3-(2-morpholin-4-yl-ethyl)-1,3-dihydro-benzoimidazol-2-one] | 260 nM
CS(=O)(=O)N1CCc2c(c(-c3ccc(Br)cc3)nn2CC(O)CN2CCC(n3c(=O)[nH]c4ccc(Cl)cc43)CC2)C1 (centres unmarked) [Example 8, 1-(1-{3-[3-(4-Bromo-phenyl)-5-methanesulfonyl-4,5,6,7-tetrahydro-pyrazolo[4,3-c]pyridin-1-yl]-2-hydroxy-propyl}-piperidin-4-yl)-6-chloro-1,3-dihydro-benzoimidazol-2-one] | 40 nM
CC(=O)N1CCc2c(c(-c3ccc(Cl)c(C)c3)nn2CC(O)CN2CCC(c3nc(-c4ccc(Cl)cc4)no3)CC2)C1 (centres unmarked) [Example 12, 1-[3-(4-Chloro-3-methyl-phenyl)-1-(3-{4-[3-(4-chloro-phenyl)-[1,2,4]oxadiazol-5-yl]-piperidin-1-yl}-2-hydroxy-propyl)-1,4,6,7-tetrahydro-pyrazolo[4,3-c]pyridin-5-yl]-ethanone] | 620 nM
CC(=O)N1CCc2c(c(-c3ccc(C(F)(F)F)cc3)nn2CC(O)CN2CCC(c3nc4cc(C(F)(F)F)ccc4s3)CC2)C1 (centres unmarked) [Example 13, 1-[1-{2-Hydroxy-3-[4-(5-trifluoromethyl-benzothiazol-2-yl)-piperidin-1-yl]-propyl}-3-(4-trifluoromethyl-phenyl)-1,4,6,7-tetrahydro-pyrazolo[4,3-c]pyridin-5-yl]-ethanone] | 370 nM
CC(=O)N1CCc2c(c(-c3ccc(C(F)(F)F)cc3)nn2CC(O)CN2CCC(Oc3noc4ccccc34)CC2)C1 (centres unmarked) [Example 14, 1-[1-{3-[4-(Benzo[d]isoxazol-3-yloxy)-piperidin-1-yl]-2-hydroxy-propyl}-3-(4-trifluoromethyl-phenyl)-1,4,6,7-tetrahydro-pyrazolo[4,3-c]pyridin-5-yl]-ethanone] | 290 nM
CC(=O)N1CCc2c(c(-c3ccc(C(F)(F)F)cc3)nn2CC(O)CN2CCC(c3nc4cc(Cl)ccc4o3)CC2)C1 (centres unmarked) [Example 15, 1-[1-{3-[4-(5-Chloro-benzooxazol-2-yl)-piperidin-1-yl]-2-hydroxy-propyl}-3-(4-trifluoromethyl-phenyl)-1,4,6,7-tetrahydro-pyrazolo[4,3-c]pyridin-5-yl]-ethanone] | 230 nM
CC(=O)N1CCc2c(c(-c3ccc(C(F)(F)F)cc3)nn2CC(O)CN2CCC(Nc3nc4ccccc4s3)CC2)C1 (centres unmarked) [Example 16, 1-[1-{3-[4-(Benzothiazol-2-ylamino)-piperidin-1-yl]-2-hydroxy-propyl}-3-(4-trifluoromethyl-phenyl)-1,4,6,7-tetrahydro-pyrazolo[4,3-c]pyridin-5-yl]-ethanone] | 300 nM
CC(=O)N1CCc2c(c(-c3ccc(C(F)(F)F)cc3)nn2CC(O)CN2CCC(Oc3c(Cl)cncc3Cl)CC2)C1 (centres unmarked) [Example 17, 1-[1-{3-[4-(3,5-Dichloro-pyridin-4-yloxy)-piperidin-1-yl]-2-hydroxy-propyl}-3-(4-trifluoromethyl-phenyl)-1,4,6,7-tetrahydro-pyrazolo[4,3-c]pyridin-5-yl]-ethanone] | 1300 nM
CC(=O)N1CCc2c(c(-c3ccc(C(F)(F)F)cc3)nn2CC(O)CN2CCC(c3nc4ccccc4[nH]3)CC2)C1 (centres unmarked) [Example 18] | 250 nM
CS(=O)(=O)N1CCc2c(c(-c3ccc(C(F)(F)F)cc3)nn2CC(O)CN2CCC(N3c4ccc(Cl)cc4CNS3(=O)=O)CC2)C1 (centres unmarked) [Example 22, 1-[4-(6-Chloro-2,2-dioxo-3,4-dihydro-2H-2λ^6-benzo[1,2,6]thiadiazin-1-yl)-piperidin-1-yl]-3-[5-methanesulfonyl-3-(4-trifluoromethyl-phenyl)-4,5,6,7-tetrahydro-pyrazolo[4,3-c]pyridin-1-yl]-propan-2-ol] | 30 nM
CS(=O)(=O)N1CCc2c(c(-c3ccc(C(F)(F)F)cc3)nn2CC(O)CN2CCC(n3ccc4ccc(Cl)cc43)CC2)C1 (centres unmarked) [Example 25, 1-[4-(6-Chloro-indol-1-yl)-piperidin-1-yl]-3-[5-methanesulfonyl-3-(4-trifluoromethyl-phenyl)-4,5,6,7-tetrahydro-pyrazolo[4,3-c]pyridin-1-yl]-propan-2-ol] | 230 nM
CS(=O)(=O)N1CCc2c(c(-c3ccc(C(F)(F)F)cc3)nn2CCCN2CCC(n3nnc4ccccc43)CC2)C1 [Example 26, 1-(1-{3-[5-Methanesulfonyl-3-(4-trifluoromethyl-phenyl)-4,5,6,7-tetrahydro-pyrazolo[4,3-c]pyridin-1-yl]-propyl}-piperidin-4-yl)-1H-benzotriazole] | 180 nM
Cn1c(=O)n(C2CCN(CCCn3nc(-c4ccc(C(F)(F)F)cc4)c4c3CCN(S(N)(=O)=O)C4)CC2)c2ccccc21 [Example 27, 1-{3-[4-(3-Methyl-2-oxo-2,3-dihydro-benzoimidazol-1-yl)-piperidin-1-yl]-propyl}-3-(4-trifluoromethyl-phenyl)-1,4,6,7-tetrahydro-pyrazolo[4,3-c]pyridine-5-sulfonic Acid Amide] | 90 nM
Cn1c(=O)n(C2CCN(CC(O)Cn3cc(-c4ccncc4)c(-c4ccc(C(F)(F)F)cc4)n3)CC2)c2cc(Cl)ccc21 (centres unmarked) [Example 28, 5-Chloro-3-(1-{2-hydroxy-3-[4-pyridin-4-yl-3-(4-trifluoromethyl-phenyl)-pyrazol-1-yl]-propyl}-piperidin-4-yl)-1-methyl-1,3-dihydro-benzoimidazol-2-one] | 890 nM
Cn1c(=O)n(C2CCN(C[C@H](O)Cn3nc(-c4ccc(C(F)(F)F)cc4)c4c3CCN(S(C)(=O)=O)C4)CC2)c2ccccc21 [Example 30, (S)-1-(1-{2-Hydroxy-3-[5-methanesulfonyl-3-(4-trifluoromethyl-phenyl)-4,5,6,7-tetrahydro-pyrazolo[4,3-c]pyridin-1-yl]-propyl}-piperidin-4-yl)-3-methyl-1,3-dihydro-benzoimidazol-2-one] | 40 nM
CS(=O)(=O)N1CCc2c(c(-c3ccc(C(F)(F)F)cc3)nn2CC(O)CN2CCC(n3c(=O)[nH]c4ccccc43)CC2)C1 (centres unmarked) [Example 32, 1-(1-{2-Hydroxy-3-[5-methanesulfonyl-3-(4-trifluoromethyl-phenyl)-4,5,6,7-tetrahydro-pyrazolo[4,3-c]pyridin-1-yl]-propyl}-piperidin-4-yl)-1,3-dihydro-benzoimidazol-2-one] | 60 nM
CS(=O)(=O)N1CCc2c(c(-c3ccc(Cl)c(Cl)c3)nn2CCCN2CCC(n3c(=O)[nH]c4ccccc43)CC2)C1 [Example 33, 1-(1-{3-[3-(3,4-Dichloro-phenyl)-5-methanesulfonyl-4,5,6,7-tetrahydro-pyrazolo[4,3-c]pyridin-1-yl]-propyl}-piperidin-4-yl)-1,3-dihydro-benzoimidazol-2-one] | 10 nM
NC(=O)N1CCc2c(c(-c3ccc(Cl)c(Cl)c3)nn2CCCN2CCC(n3c(=O)[nH]c4ccccc43)CC2)C1 [Example 34, 3-(3,4-Dichloro-phenyl)-1-{3-[4-(2-oxo-2,3-dihydro-benzoimidazol-1-yl)-piperidin-1-yl]-propyl}-1,4,6,7-tetrahydro-pyrazolo[4,3-c]pyridine-5-carboxylic Acid Amide] | 20 nM
CS(=O)(=O)N1CCc2c(c(-c3ccc(C(F)(F)F)cc3)nn2CCCN2CCC(n3c(=O)[nH]c4ccc(Cl)cc43)CC2)C1 [Example 35, 6-Chloro-1-(1-{3-[5-methanesulfonyl-3-(4-trifluoromethyl-phenyl)-4,5,6,7-tetrahydro-pyrazolo[4,3-c]pyridin-1-yl]-propyl}-piperidin-4-yl)-1,3-dihydro-benzoimidazol-2-one] | 30 nM
